Data from patent US20260184782A1 (TWIST BIOSCIENCE, published 2026).

T1: TIGIT (UniProt Q495A1 22-141, limits assumed)
T1 construct: construct not described; also called T cell immunoreceptor with Ig and ITIM domains
T1 sequence (looked up): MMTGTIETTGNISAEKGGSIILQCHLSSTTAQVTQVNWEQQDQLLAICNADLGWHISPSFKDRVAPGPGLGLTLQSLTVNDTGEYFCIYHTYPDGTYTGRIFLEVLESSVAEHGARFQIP


What was measured:
TIGIT [1] = target: T1, TIGIT; experiment: ELISA
TIGIT [2] = target: T1, TIGIT; experiment: Carterra SPR, VHH-Fc

| Binder | ELISA (TIGIT [1]) | Kd (TIGIT [2]) | koff (TIGIT [2]) | kon (TIGIT [2]) |
| --- | --- | --- | --- | --- |
| TIGIT-30-10 VHH-Fc (Fc fusion) EVQLVESGGGLVQAGGSLRLSCAASVRTFSLSDMGWFRQAPGKEREFVGAINWLSESTYYADSVKGRFTISADNAKNTVYLQMNSLKPEDTAVYYCAAQGGVLSGWDWGQGTQVTVSSGGGGS[in this place human IgG1 Fc with C220S (EU numbers)] | 4.2 | 336 nM | 0.039 s⁻¹ | 120000 M⁻¹ s⁻¹ |
| TIGIT-30-51 VHH-Fc (Fc fusion) EVQLVESGGGLVQAGGSLRLSCAASGSIFSISDMGWFRQAPGKEREFVGAINWLSESTYYADSVKGRFTISADNAKNTVYLQMNSLKPEDTAVYYCAAQGGVLSGWDWGQGTQVTVSSGGGGS[in this place human IgG1 Fc with C220S (EU numbers)] | 3.4 | 897 nM | 890 s⁻¹ | 9.9e+08 M⁻¹ s⁻¹ |
| TIGIT-30-13 VHH-Fc (Fc fusion) EVQLVESGGGLVQAGGSLRLSCAASGRTFSNYFMGWFRQAPGKERESVAAINWDSARTYYADSVKGRFTISADNAKNTVYLQMNSLKPEDTAVYYCASAGRWGQGTQVTVSSGGGGS[in this place human IgG1 Fc with C220S (EU numbers)] | 3.2 | 106 nM | 82 s⁻¹ | 7.7e+08 M⁻¹ s⁻¹ |
| TIGIT-30-52 VHH-Fc (Fc fusion) EVQLVESGGGLVQAGGSLRLSCAASGRTFSNYFMGWFRQAPGKERESVATVTWRDNITYYADSVKGRFTISADNAKNTVYLQMNSLKPEDTAVYYCASAGRWGQGTQVTVSSGGGGS[in this place human IgG1 Fc with C220S (EU numbers)] | 4.2 | 49 nM | 0.27 s⁻¹ | 5.4e+06 M⁻¹ s⁻¹ |
| TIGIT-29-20 VHH-Fc (Fc fusion) EVQLVESGGGLVQAGGSLRLSCAASGSTFSIYAMGWFRQAPGKERELVASISWSGDTTNYADSVKGRFTISADNAKNTVYLQMNSLKPEDTAVYYCAAGSVYGRNSWGQGTQVTVTSGGGGS[in this place human IgG1 Fc with C220S (EU numbers)] | 5.9 | 83 nM | 83 s⁻¹ | 1e+09 M⁻¹ s⁻¹ |
| TIGIT-30-38 VHH-Fc (Fc fusion) EVQLVESGGGLVQAGGSLRLSCAASGSIASFNAMGWFRQAPGKEREWVSSVYIFGGSTYYADSVKGRFTISADNAKNTVYLQMNSLKPEDTAVYYCANSNKPKFDWGQGTQVTVSSGGGGS[in this place human IgG1 Fc with C220S (EU numbers)] | 3.9 | 360 nM | 92 s⁻¹ | 2.6e+08 M⁻¹ s⁻¹ |
| TIGIT-30-29 VHH-Fc (Fc fusion) EVQLVESGGGLVQAGGSLRLSCAASGSSLSFNAMGWFRQAPGKEREWVSSVYIFGGSTYYADSVKGRFTISADNAKNTVYLQMNSLKPEDTAVYYCANSNKPKFDWGQGTQVTVSSGGGGS[in this place human IgG1 Fc with C220S (EU numbers)] | 4.3 | 148 nM | 0.073 s⁻¹ | 490000 M⁻¹ s⁻¹ |
| TIGIT-30-11 VHH-Fc (Fc fusion) EVQLVESGGGLVQAGGSLRLSCAASGSITSIRSMGWFRQAPGKEREWVSSVYIFGGSTYYADSVKGRFTISADNAKNTVYLQMNSLKPEDTAVYYCANSNKPKFDWGQGTQVTVSSGGGGS[in this place human IgG1 Fc with C220S (EU numbers)] | 7.2 | 221 nM | 0.056 s⁻¹ | 250000 M⁻¹ s⁻¹ |
| TIGIT-30-9 VHH-Fc (Fc fusion) EVQLVESGGGLVQAGGSLRLSCAASGPISGINRMGWFRQAPGKEREWVSTITFNGDHTYYADSVKGRFTISADNAKNTVYLQMNSLKPEDTAVYYCAARPYTRPGSMWVSSLYDWGQGTQVTVSSGGGGS[in this place human IgG1 Fc with C220S (EU numbers)] | 8 | 79 nM | 0.011 s⁻¹ | 130000 M⁻¹ s⁻¹ |
| TIGIT-30-7 VHH-Fc (Fc fusion) EVQLVESGGGLVQAGGSLRLSCAASGIPASIRTMGWFRQAPGKEREGISLITSDDGSTYYADSVKGRFTISADNAKNTVYLQMNSLKPEDTAVYYCAWTTNRGMDWGQGTQVTVSSGGGGS[in this place human IgG1 Fc with C220S (EU numbers)] | 3.1 | 285 nM | 0.099 s⁻¹ | 350000 M⁻¹ s⁻¹ |
| TIGIT-30-18 VHH-Fc (Fc fusion) EVQLVESGGGLVQAGGSLRLSCAASGRAFSLRTMGWFRQAPGKEREGISLITSDDGSTYYADSVKGRFTISADNAKNTVYLQMNSLKPEDTAVYYCAWTTNRGMDWGQGTQVTVSSGGGGS[in this place human IgG1 Fc with C220S (EU numbers)] | 4.1 | 741 nM | 0.068 s⁻¹ | 92000 M⁻¹ s⁻¹ |
| TIGIT-30-32 VHH-Fc (Fc fusion) EVQLVESGGGLVQAGGSLRLSCAASGIIGTIRTMGWFRQAPGKEREGISLITSDDGSTYYADSVKGRFTISADNAKNTVYLQMNSLKPEDTAVYYCAWTTNRGMDWGQGTQVTVSSGGGGS[in this place human IgG1 Fc with C220S (EU numbers)] | 6 | 207 nM | 0.06 s⁻¹ | 290000 M⁻¹ s⁻¹ |
| TIGIT-30-49 VHH-Fc (Fc fusion) EVQLVESGGGLVQAGGSLRLSCAASGNIFSRYIMGWFRQAPGKEREWVAGISNGGTTKYADSVKGRFTISADNAKNTVYLQMNSLKPEDTAVYYCAQGWKIVPTNWGQGTQVTVSSGGGGS[in this place human IgG1 Fc with C220S (EU numbers)] | 10.3 | 62 nM | 18 s⁻¹ | 3e+08 M⁻¹ s⁻¹ |
| TIGIT-30-03 VHH-Fc (Fc fusion) EVQLVESGGGLVQAGGSLRLSCAASGNIFSRYIMGWFRQAPGKEREWVAGISNGGTTKYADSVKGRFTISADNAKNTVYLQMNSLKPEDTAVYYCAQGWKIRPTIWGQGTQVTVSSGGGGS[in this place human IgG1 Fc with C220S (EU numbers)] | 4.3 | 273 nM | 270 s⁻¹ | 1e+09 M⁻¹ s⁻¹ |
| TIGIT-29-42 VHH-Fc (Fc fusion) EVQLVESGGGLVQAGGSLRLSCAASGSTFSTYAMGWFRQAPGKEREFVATISTSSSRTYYADSVKGRFTISADNAKNTVYLQMNSLKPEDTAVYYCAARLWGTWTAGDYDYWGQGTQVTVSLGGGGS[in this place human IgG1 Fc with C220S (EU numbers)] | 10 | 114 nM | 66 s⁻¹ | 5.8e+08 M⁻¹ s⁻¹ |

More lines, in order of falling Kd (TIGIT [2]), values ahead:

| ELISA (TIGIT [1]) | Kd (TIGIT [2]) | koff (TIGIT [2]) | kon (TIGIT [2]) | Binder |
| --- | --- | --- | --- | --- |
| 3.8 | 567 nM | 0.0087 s⁻¹ | 15000 M⁻¹ s⁻¹ | TIGIT-30-6 VHH-Fc (Fc fusion) EVQLVESGGGLVQAGGSLRLSCAASGRFSRINSMGWFRQAPGKERELVAHIFRSGITSYASYADSVKGRFTISADNAKNTVYLQMNSLKPEDTAVYYCAIGRGSWGQGTQVTVSSGGGGS[in this place human IgG1 Fc with C220S (EU numbers)] |
| 4.2 | 235 nM | 0.041 s⁻¹ | 170000 M⁻¹ s⁻¹ | TIGIT-30-37 VHH-Fc (Fc fusion) EVQLVESGGGLVQAGGSLRLSCAASGRTFSSKAMGWFRQAPGKEREWVSSVYIFGGSTYYADSVKGRFTISADNAKNTVYLQMNSLKPEDTAVYYCANSNKPKFDWGQGTQVTVSSGGGGS[in this place human IgG1 Fc with C220S (EU numbers)] |
| 5.2 | 231 nM | 0.057 s⁻¹ | 250000 M⁻¹ s⁻¹ | TIGIT-29-14 VHH-Fc (Fc fusion) EVQLVESGGGLVQAGGSLRLSCAASGFTFSDYVMGWFRQAPGKEREFVSAISWSGTNTNYADSVKGRFTISADNAKNTVYLQMNSLKPEDTAVYYCATRALRDGRGYWGQGTQVTVSSGGGGS[in this place human IgG1 Fc with C220S (EU numbers)] |
| 6.4 | 179 nM | 0.12 s⁻¹ | 660000 M⁻¹ s⁻¹ | TIGIT-30-36 VHH-Fc (Fc fusion) EVQLVESGGGLVQAGGSLRLSCAASGSIASIHAIGWFRQAPGKEREWVSSVYIFGGSTYYADSVKGRFTISADNAKNTVYLQMNSLKPEDTAVYYCANSNKPKFDWGQGTQVTVSSGGGGS[in this place human IgG1 Fc with C220S (EU numbers)] |
| 5.3 | 133 nM | 76 s⁻¹ | 5.7e+08 M⁻¹ s⁻¹ | TIGIT-30-24 VHH-Fc (Fc fusion) EVQLVESGGGLVQAGGSLRLSCAASGNIFSRYIMGWFRQAPGKEREWVAGISNGGTTKYADSVKGRFTISADNAKNTVYLQMNSLKPEDTAVYYCAQGWKIIPTDWGQGTQVTVSSGGGGS[in this place human IgG1 Fc with C220S (EU numbers)] |
| 7.2 | 130 nM | 64 s⁻¹ | 4.9e+08 M⁻¹ s⁻¹ | TIGIT-30-34 VHH-Fc (Fc fusion) EVQLVESGGGLVQAGGSLRLSCAASGNIFSRYIMGWFRQAPGKEREWVAGISSGGTTKYADSVKGRFTISADNAKNTVYLQMNSLKPEDTAVYYCAQGWKIVPTNWGQGTQVTVSSGGGGS[in this place human IgG1 Fc with C220S (EU numbers)] |
| 9.3 | 100 nM | – | – | TIGIT-30-5 VHH-Fc (Fc fusion) EVQLVESGGGLVQAGGSLRLSCAASGGTFRNYGMGWFRQAPGKERELVAAISWSGVSTIYADSVKGRFTISADNAKNTVYLQMNSLKPEDTAVYYCASSPYGPLYRSTHYYDWGQGTQVTVSSGGGGS[in this place human IgG1 Fc with C220S (EU numbers)] |
